Out of some 310,000 compounds screened, about 18,000 (5.8%) were called active. The inconclusive results got no clear call from the source; some entries with a clear call stand among them for comparison. The call rests on the fitted dose curve; in most records, active means well fitted inhibition curve with a large enough effect; inconclusive means small, poorly fitted or top-dose-only effect, or another doubt; inactive means no such curve, though single readings can be large or run the other way. No potency is given beside an inconclusive call; the fits are too rough.
Experiment: Primary qHTS for delayed death inhibitors of the malarial parasite plastid, 48 hour incubation
Settings: P. falciparum luciferase growth in erythrocytes; series mostly up to 28.7 µM
Method in brief: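 Luciferase-expressing P. falciparum in infected erythrocytes (2% hematocrit, 0.1% parasitemia final) in RPMI 1640/0.5% Albumax were exposed to compound for 48 hours at 37 C, 5% CO2; growth read as luminescence.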
Potency means the concentration at half of the fitted maximal effect; tags describe the fitted curve by direction and shape.

SMILES | Potency
COc1ccc(C)cc1NC(=O)CN1CCN(c2ccccn2)CC1 | inconclusive [inhibitor, partial curve]
CCC(C)c1ccccc1NC(=O)CN(C)CC(=O)Nc1ccccc1SC (stereo unspecified) | inconclusive [inhibitor, single point]
COc1ccc(C(=O)NC(=S)N2CCCC2)cc1 | inactive
CC(C)=CC(=O)Nc1nc2ccc([N+](=O)[O-])cc2s1 | inconclusive [inhibitor, single point]
COc1ccc(OC)c(NC(=O)C(=O)NCCC2=CCCCC2)c1 | inactive
O=C(O)Cn1c2c(c3ccccc31)CCCC2 | inactive
CCOC(=O)N1CCN(C(=O)c2ccc(N3CC4CC(C3)c3cccc(=O)n3C4)c(NC(=O)c3ccc(F)cc3)c2)CC1 (stereo unspecified) | inconclusive [inhibitor, single point]
CN(CCOc1ccc(Cl)cc1)C(=O)c1ccc(S(=O)(=O)N2CCOCC2)cc1 | inconclusive [inhibitor, single point]
CCCCC(CC)C(=O)Nc1cc(C(=O)NCc2ccc(C)cc2)ccc1N1CCC2(CC1)CC(c1ccccc1)=NO2 (stereo unspecified) | active: 3.29 µM
O=C(Nc1ccc(F)cc1)N1CCCN(c2ccc(C(F)(F)F)cn2)CC1 | inconclusive [inhibitor, partial curve]
COc1ccc(S(=O)(=O)N2CCCCCC2)cc1C(=O)Nc1cc(C)ccn1 | active: 9.28 µM
O=C(O)c1ccc(N2C(=O)CC(N3CCC(c4nc5ccccc5[nH]4)CC3)C2=O)cc1 (stereo unspecified) | inconclusive [inhibitor, partial curve]
COC(=O)c1c(N2C(=O)[C@H]3[C@@H](C2=O)[C@]2(C(=O)Nc4ccccc42)N2CCC[C@@H]32)sc(C)c1C | inconclusive [inhibitor, single point]
Cc1ccc(C(=O)CCC(=O)NCc2ccc(Cl)cc2)cc1 | inconclusive [inhibitor, partial curve, poor fit]
Cc1[nH]nc(N=CC2=C(O)CC(c3ccco3)CC2=O)c1-c1ccccc1 (stereo unspecified) | inconclusive [inhibitor, partial curve, poor fit]
COc1ccc(NC(=O)CC2SC(N3CCOCC3)=NC2=O)cc1OC (stereo unspecified) | inconclusive [inhibitor, single point]
C=CCn1c(=O)/c(=C2/Sc3ccccc3N2CC)s/c1=C1/C(=O)NN=C1C | active: 14.7 µM
CCOc1ccc(CCNS(=O)(=O)c2ccc(-c3ccc(=O)[nH]n3)o2)cc1OCC | inconclusive [inhibitor, partial curve, poor fit]
Cc1cc(C)c(NC(=O)CN(CC(=O)O)CC(=O)O)c(C)c1Br | inactive
Cc1ccc(C)c(S(=O)(=O)N2CCCCC2CCNC(=O)C(=O)NCc2ccco2)c1 (stereo unspecified) | inconclusive [inhibitor, single point]
COc1ccc(CCNC(=O)COC(=O)c2ccc(N3CCCC3=O)cc2)cc1OC | inactive

SMILES | Potency
COc1ccc(/C=C2\C(=O)c3ccccc3OC2c2ccccc2)cc1 (stereo unspecified) | inconclusive [inhibitor, single point]
Cc1nnc(N/N=C/c2c(Cl)cccc2Cl)n1N | inactive
COc1cccc(-c2nc3c(c(=O)[nH]c(=O)n3Cc3ccccc3)n2CCO)c1OC(F)F | inconclusive [inhibitor, partial curve]
CSc1ccc(CNC(=O)CCn2ccc3cc(S(=O)(=O)N4CCCC4)ccc32)cc1 | inconclusive [inhibitor, partial curve]
COc1cc(CN2CCC(n3nccc3NC(=O)CCCc3ccccc3)CC2)ccc1O | inconclusive [inhibitor, partial curve]
CCc1ccc(OCC(=O)N/N=C(\C)c2ccc3c(c2)OCCO3)cc1 | inactive
c1cncc(CNc2ncnc3ccc(-c4ccco4)cc23)c1 | inconclusive [inhibitor, single point]
COc1ccc(N(CC(=O)NCc2ccc(C)cc2)S(=O)(=O)c2c(C)noc2C)cc1 | inconclusive [inhibitor, single point]
CCOc1ccccc1NC(=O)c1cccc2c1C(=O)N(C1CCCCC1)C2 | inconclusive [inhibitor, partial curve]
COc1ccc(CC(=O)N(CCC2=CCCCC2)c2c(N)n(Cc3ccccc3)c(=O)[nH]c2=O)cc1OC | inconclusive [inhibitor, single point]
O=C(NCC(=O)N(CC1CCCO1)C(C(=O)NC1CCCCC1)c1ccc(F)cc1)c1ccco1 (stereo unspecified) | inconclusive [inhibitor, single point]
CCc1nc(SCC(=O)N2c3ccccc3CC2C)c2c(C)c(C)sc2n1 (stereo unspecified) | inconclusive [inhibitor, partial curve]
Cc1c(NC(=O)c2ccc(CN3CCc4ccccc4C3)cc2)c(=O)n(-c2ccccc2)n1C | inconclusive [inhibitor, partial curve, poor fit]
CCn1ccc(C(=O)Nc2ccc(N(C)C(C)=O)cc2)n1 | inactive
COc1cc(Cn2c(-c3ccc(O)c(OC)c3)nc3ccccc32)ccc1O | active: 2.94 µM
CC(O)/C=C/c1cccc[n+]1C (stereo unspecified) | inconclusive [inhibitor, single point]
Cc1ccc(NS(=O)(=O)c2cccc(C(=O)Nc3cc(C)on3)c2)cc1 | inconclusive [inhibitor, single point]
O=C(NCCc1c[nH]c2ccccc12)C1Cc2ccccc2CN1C(=O)c1ccco1 (stereo unspecified) | inconclusive [inhibitor, full curve]
Cc1ccc2cc3cc(C(=O)N4CCN(C(=O)c5ccco5)CC4)sc3nc2c1 | inconclusive [inhibitor, partial curve, poor fit]
COCCn1c(=N)c(S(=O)(=O)c2ccc(Br)cc2)cc2c(=O)n3ccccc3nc21 | inconclusive [inhibitor, single point]
